The whole screen tested about 48,000 compounds, of which about 120 (0.25%) were called active. Another 4% or so got no clear call; they are omitted. Calls follow the shape of the dose curve; as a rule, active = well fitted activation curve with a large enough effect; inconclusive = small, poorly fitted or top-dose-only effect, or another doubt; inactive = no such curve, though single readings can be large or run the other way. The list shows a part of the results.
Experiment: Primary qHTS for Identification of Small Molecule Activators of Huntingtin-Antisense Promoter Activity; also: nearly all actives have a fitted effect of over 55% in size
Conditions: HEK293 HTT-AS promoter firefly luciferase reporter (activity 0% = vehicle and -100% = no light), 24 h; series mostly up to 57.5 µM; activity change, positive = activation: at the top concentration
How it was run: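 Firefly luciferase signal from promoter-reporter HEK293 cells was scaled between vehicle (0%) and zero RLU (-100%). Compounds were tested at final concentrations of up to 57.5 uM over 24 h at 37 degrees C. PTC124 at 50 uM final served as control inhibitor.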

| Structure (SMILES) | activity change, positive = activation |
| --- | --- |
| COC(=O)c1ccc(Cl)cc1NC(=O)N(Cc1ccc(C)o1)C1CCN(C(C)=O)CC1 | inactive: -10.2% |
| CCC(CC)c1nn2c(=O)cc(COc3ccc(NC(=O)c4cccc(Cl)c4)cc3)nc2s1 | inactive: -13.3% |
| COc1ccc(C)cc1NS(=O)(=O)c1ccc2c(c1)n(C)c(=O)n2C | inactive: -9.44% |
| CCn1c(=O)c(=O)n(CC)c2cc(N3CCCCC3)c(NC(=O)c3cccc(F)c3)cc21 | inactive: -8.77% |
| Cc1nnc2c(Nc3cccc(O)c3)nc3ccccc3n12 | inactive: 5.53% |
| Cc1ccc(Nc2nnc(-c3ccc(C)c(S(=O)(=O)N4CCOCC4)c3)c3ccccc23)c(C)c1 | inactive: -34.1% |
| CCOc1ccc(C(=O)c2cn(Cc3ccc(Cl)cc3)c3cc(OC)c(OC)cc3c2=O)cc1 | inactive: -36.3% |
| CCC(Cc1ccccc1)NC(=O)Cn1ncc2c3ccccc3n(Cc3ccccc3)c2c1=O (configuration not stated) | inactive: -27% |
| CCc1nc2nc(C)cc(Nc3ccc(OC)cc3OC)n2n1 | inactive: -20.7% |
| Cc1oc(-c2ccc(Cl)cc2)nc1CN1CCC(C(=O)NCCCN2CCN(c3cccc(Cl)c3)CC2)CC1 | inactive: -29.9% |
| CC(C)C1CCC(C(=O)N[C@H](Cc2ccccc2)C(=O)O)CC1 (some centres not stated) | inactive |
| Cc1ccc2c(c1)NC(=O)C(CC(=O)Nc1ccccc1Cl)O2 (configuration not stated) | inactive: -11.4% |
| Cc1cc(C)n2nc(SCC(=O)Nc3ccccc3C)nc2n1 | inactive: 13.2% |
| Cc1ccc(Cl)cc1N1CCN(C(=O)c2cc(S(=O)(=O)N3CCCC3)cn2C)CC1 | inactive: -28.7% |
| COc1ccc(CC(=O)NCC(c2ccc(N(C)C)cc2)N2CCOCC2)cc1 (configuration not stated) | inactive: -9.21% |
| CC(C)c1ccc(OC(=O)c2cc(-c3ccc(Cl)cc3)on2)cc1 | inactive: -16.7% |
| Cc1cc(F)ccc1S(=O)(=O)Nc1ccc2c(c1)CCCN2C(=O)c1cccs1 | inactive: -25.1% |
| COc1ccc(N2C(=O)C(CC(=O)Nc3ccc(F)cc3)N(Cc3ccc4c(c3)OCO4)C2=O)cc1 (configuration not stated) | inactive: 0.999% |
| COC(=O)c1cnc(NCc2ccc(F)cc2)c2ccccc12 | inactive: -15% |
| CCN(CC)C(=O)Cn1c(=O)nc(-c2ccccc2F)c2cc(Cl)ccc21 | inactive: 0.395% |
| CCCNC(=O)N1[C@H](c2ccc(C)s2)[C@@H](C)C(=O)[C@@H](C)[C@@H]1c1ccc(C)s1 | inactive: -11.4% |
| NC(=O)COCCN1CCN(C(c2ccccc2)c2ccc(Cl)cc2)CC1 (configuration not stated) | inactive: -10.7% |
| O=C1c2[nH]nc(-c3ccccc3O)c2C(c2ccccc2F)N1Cc1ccncc1 (configuration not stated) | inactive: 11.6% |

| Structure (SMILES) | activity change, positive = activation |
| --- | --- |
| CCOC(=O)Cc1ccc(NC(=O)NCc2cccn2Cc2ccccc2)cc1 | inactive: -23.6% |
| COc1ccc(-n2c(=O)c3sc4ccccc4c3n(CC(=O)Nc3ccccc3F)c2=O)cc1 | inactive: -7.59% |
| CCC(=O)N1CCc2cc(S(=O)(=O)CCC(=O)N3CCN(c4cc(C)ccc4C)CC3)ccc21 | inactive: -5.36% |
| CCOc1ccc(NC(=O)c2c(NC(=O)Cc3ccccc3)sc3c2CCC(C)C3)cc1 (configuration not stated) | inactive: -28.3% |
| COc1ccc(OC)c(NC(=O)CN(C)S(=O)(=O)c2ccc3[nH]c4c(c3c2)CCCC4)c1 | inactive: -28.6% |
| CCOc1ccc(C(=O)NCC(c2ccc3c(c2)OCO3)N2CCN(c3ccccc3F)CC2)cc1 (configuration not stated) | inactive: -28.7% |
| COc1ccc(Cn2nnc(C(=O)Nc3cc(OC)ccc3OC)c2N)cc1 | inactive: -7.01% |
| COCCCNC(=O)C1CCN(Cc2nc(-c3ccc(OC)c(OC)c3)oc2C)CC1 | inactive: -8.01% |
| Cc1ccc(NC(=O)Cn2c(=O)n(Cc3ccco3)c(=O)c3ccc(C(=O)NC4CCCC4)cc32)c(C)c1 | inactive: -24.3% |
| CCn1c(=O)cc(SCC(=O)NCCc2cc(OC)ccc2OC)c2ccccc21 | inactive: -13.6% |
| CCOc1ccc(NC(=O)c2c(NCc3ccc(C)o3)sc3c2CCC(C)C3)cc1 (configuration not stated) | inactive: -20.7% |
| COc1ccc(C)cc1Nc1nc2cc(Cl)c(Cl)cc2nc1-n1nc(C)cc1C | inactive: -0.26% |
| COc1ccc(C)cc1NC(=O)CSc1nc(=O)n(Cc2ccncc2)c2c1CCC2 | inactive: -36.3% |
| C=Cc1ccc(CN2C(=O)N(c3ccc(CC)cc3)S(=O)(=O)c3ccccc32)cc1 | inactive: -30% |
| Cc1ccc(NC(=O)Cn2c(=O)n(-c3ccccc3)c(=O)c3c4c(sc32)CCCC4)cc1 | inactive: -2.68% |
| COc1ccc(C)cc1NC(=O)NCc1ccc2c(c1)CCN2C(=O)c1ccccc1 | inactive: -47.8% |
| COc1ccc(C(=O)NCCc2sc(-c3ccc(Cl)cc3)nc2C)c(OC)c1 | inactive: -24.1% |
| Cc1ccc(C)c(CN2C(=O)c3ccccc3S(=O)(=O)c3ccc(C(=O)N4CCN(c5ccccn5)CC4)cc32)c1 | inactive: -37.6% |
| COc1cc(NC(=O)CN2C(=O)COc3ccc(S(=O)(=O)N4CCCCC4)cc32)cc(OC)c1 | inactive: -23% |
| CCc1cccc(N2C(=O)N(CC(=O)NCc3cccc(OC)c3OC)c3ccccc3S2(=O)=O)c1 | inactive: -32% |
| CCCN1C(=O)C(Cc2nc3ccccc3c(=O)n2-c2ccccc2)c2cc(C)ccc21 (configuration not stated) | inactive: -26.4% |
| COC(=O)c1ccc(OCC2c3cc(OC)c(OC)cc3CCN2C(=O)C(C)C)cc1 (configuration not stated) | inactive: -27.7% |
| CCOC(=O)COc1ccc(C)cc1C(=O)c1ccn2nc(-c3ccc(C)cc3)cc2n1 | inactive: -7.52% |

| Structure (SMILES) | activity change, positive = activation |
| --- | --- |
| O=C(CSc1ncc2c(n1)-c1ccccc1N(Cc1ccccc1)S2(=O)=O)Nc1ccccc1 | inactive: 12.5% |
| COCCNC(=O)c1ccc(CSc2nc3ccncc3n2Cc2ccccc2)cc1 | inactive: 8.87% |
| CCCCNC(=O)CSc1nc2ccccc2nc1Cc1ccc(C)cc1 | inactive: -5.85% |
| COc1cccc(CN2C(=O)c3ccccc3Sc3ccc(C(=O)N(C)Cc4ccccc4)cc32)c1 | inactive: -25.3% |
| COc1ccc(-c2nnc(SCc3cc(=O)c4cc(C)cc(C)c4[nH]3)n2C)cc1 | inactive: -52.6% |
| COc1cccc2cc(-c3nc(Nc4cccc(C)c4)sc3C)c(=O)oc12 | inactive: -8.41% |
| O=C(c1cccs1)c1cn(CCOc2ccccc2F)c2ccccc12 | inactive: -21.4% |
| CC(C)c1ccc(S(=O)(=O)c2nnn3c2nc(N2CCN(C)CC2)c2sccc23)cc1 | inactive: -2.89% |
| COc1cccc(CNC(=O)c2ccc3nc(-c4ccc(F)cc4)c(-c4ccc(F)cc4)nc3c2)c1 | inactive: -34.4% |
| COc1cc(C2c3c(-c4ccccc4O)n[nH]c3C(=O)N2CCO)ccc1OCc1ccccc1 (configuration not stated) | inactive: -26.3% |
| CC(C)CN(C[C@@H](O)[C@H](Cc1ccccc1)NC(=O)O[C@H]1CO[C@H]2OCC[C@H]21)S(=O)(=O)c1ccc(N)cc1 | inactive: -25% |
| CCOC(=O)c1ccccc1NC(=O)c1c2c(nc3ccccc13)C(=O)N(C1CCCCC1)C2 | inactive: 6.13% |
| O=C(CN1C(=O)COc2ccc(S(=O)(=O)N3CCCC3)cc21)N1CCN(c2ccccc2)CC1 | inactive: -16.1% |
| COc1ccc2c(Sc3ccccc3)c(C(=O)NCCc3ccc(Cl)cc3)[nH]c2c1 | inactive: 0.682% |
| O=C(CSc1ncc2c(n1)-c1ccc(Cl)cc1N(Cc1ccccc1)S2(=O)=O)Nc1ccc(F)c(F)c1 | inactive: -3.26% |
| CCOC(=O)C1CCCN(CC(=O)N2CCCc3c2c(=O)oc2ccc(OCc4ccccc4)cc32)C1 (configuration not stated) | inactive: 0.331% |
| CCN1CCN(CCCNC(=O)c2cc3c(s2)-c2ccccc2OC3)CC1 | inactive: -6.14% |
| O=C(NCc1ccc2c(c1)CCN2C(=O)c1ccccc1)c1cc2ccccc2[nH]1 | inactive: -20.5% |
| CCc1ccc(NC(=O)c2sc3ncnc(N(C)C4CCCCC4)c3c2C)cc1 | inactive: -6.33% |
| CCOc1ccc(C2C(C(N)=O)=C(C)Nc3nc(SCc4ccccc4)nn32)cc1 (configuration not stated) | inactive: -15.1% |
| COc1ccc(CNC(=O)Nc2ccc3c(c2)N(C)C(=O)c2ccccc2S3)cc1 | inactive: -47.6% |
| CC(=O)C1=C(c2ccc(C)cc2)N(C(C)=O)n2c(nnc2C2CCCCC2)S1 | inactive: 0.0565% |
| O=C(COc1ccc(F)cc1)OCc1cc(=O)n2nc(C3CCCCC3)sc2n1 | inactive: 7.81% |

| Structure (SMILES) | activity change, positive = activation |
| --- | --- |
| Cc1cc(-c2ccc(C)c(S(=O)(=O)NC(c3cccs3)C(C)C)c2)on1 (configuration not stated) | inactive: -42.2% |
| O=C(NCCS(=O)(=O)N1CCN(c2ccccc2)CC1)C1CC(=O)N(c2ccc(F)cc2)C1 (configuration not stated) | inactive: -13.5% |
| COc1ccc(NC(=O)CCSc2nc(-c3ccc(OC)cc3)cc(C(F)(F)F)n2)cc1 | inactive: -12.5% |
| CCc1nnc(SCc2c(F)cccc2Cl)c2cc3sccc3n12 | inactive: 4.16% |
| Cc1ccc(NC(=O)Cn2cc(C(=O)C3CC3)c3ccccc32)c(C)c1 | inactive: -10.2% |
| CC(C)CCNC(=O)c1ccc2c(c1)NC(=O)C(CS(=O)(=O)Cc1ccc(F)cc1)N2 (configuration not stated) | inactive: -5.86% |
| CC1=C(C(=O)N2CCN(c3cc(C)ccc3C)CC2)C2(CCC(C)CC2)OC1=O (configuration not stated) | inactive: -21.7% |
| COc1ccc(C(C(=O)NCc2ccccc2)N(C(=O)Cn2nnc3ccccc32)c2cccc(OC)c2)cc1 (configuration not stated) | inactive: -7.33% |
| COc1ccc(C(=O)Nc2nc3nc(C)c(Cc4ccccc4)c(=O)n3[nH]2)cc1OC | inactive: -6.78% |
| Cc1ccc(CNC(=O)COCc2cc(-c3cccs3)on2)cc1 | inactive: 5.24% |
| CC1=C(C(=O)Nc2cccnc2)C(c2cccc(Br)c2)n2nc(SCc3ccccc3)nc2N1 (configuration not stated) | inactive: -13.2% |
| CCOc1ccc(CNC(=O)C2CCN(S(=O)(=O)N3CCC(C)CC3)CC2)cc1OC | inactive: -19.4% |
| COc1cc(NC(=O)C2CCN(c3cnc4ccccc4n3)CC2)cc(OC)c1OC | inactive: -16.4% |
| CCCc1cc(=O)n2[nH]c(NC(=O)c3ccc(C(C)(C)C)cc3)nc2n1 | inactive: 1.01% |
| Cc1cccc(CNS(=O)(=O)c2ccc(-c3cnc(C4CC4)o3)cc2)c1 | inactive: -31.5% |
| CC(=O)c1cccc(NC(=O)CN2C=NS(=O)(=O)c3ccc(C)cc32)c1 | inactive: -6.87% |
| CC1=C(C(=O)Nc2ccccc2C)C(c2ccncc2)n2nc(SCc3ccccc3Cl)nc2N1 (configuration not stated) | inactive: -17.1% |
| Cc1cccc(-c2noc(-c3ccccc3NC(=O)C3CC(=O)N(c4ccccc4C)C3)n2)c1 (configuration not stated) | inactive: 3.53% |
| CCn1c(=O)c2cc(C(=O)Nc3cc(OC)c(OC)c(OC)c3)sc2c2ccccc21 | inactive: -11.7% |
| Cn1ccc2cc(S(=O)(=O)N3CCCC(C(=O)NCc4ccccc4)C3)ccc21 (configuration not stated) | inactive: -14.4% |
| Cc1nc(N2CCOCC2)c2c(C(=O)NCc3ccc(Cl)cc3)c(C)oc2n1 | inactive: -4.09% |
| Cc1ccc(OCCSc2nc3ccc(NC(=O)c4cccs4)cc3s2)cc1 | inactive: -22.1% |
| CN(C)S(=O)(=O)N(CC(=O)Nc1ccc(C(F)(F)F)cc1)c1ccccc1 | inactive: -18.5% |

Source: PubChem BioAssay AID1508624 (National Center for Advancing Translational Sciences (NCATS), 2021)
